{"source": "paper PMC8329197", "about": "“Compounds targeting OSBPL7 increase ABCA1-dependent cholesterol efflux preserving kidney function in two models of kidney disease” (Nature Communications, 2021)", "key": {"[1]": {"test_system": "Adriamycin (ADR)-induced nephropathy in Balb/c mice", "experiment": "ADR nephropathy: serum cholesterol and triglycerides", "assay_type": "in vivo, mouse", "details": "ADR-injected mice, 28-day treatment"}, "Col4a3 KO mice": {"test_system": "Col4a3 KO mice", "experiment": "Alport syndrome model: ACR, serum creatinine, BUN, body weight (also vs ramipril)", "details": "Col4A3 KO, age 8 weeks, Cpd G 100 mg/Kg/day"}, "[2]": {"test_system": "Adriamycin (ADR)-induced nephropathy in Balb/c mice", "experiment": "ADR nephropathy: blood urea nitrogen (BUN) and serum creatinine", "assay_type": "in vivo, mouse", "details": "28 days treatment", "from_the_text": "Supplement 41467_2021_24890_MOESM5_ESM.xlsx, sheet \"Supplementary Table 4\" | column: ADR+ Cpd A; ADR+ Cpd G; ADR+ Cpd C"}}}
{"smiles": "O=C(N[C@@H]1CCCC[C@H]1O)c1cnc(OCC(F)(F)F)c(-c2ccc(Cl)c(Cl)c2)c1", "note": "[Cpd G]", "values": [{"measurement": "Serum cholesterol, QR(25)", "setting": "[1]; 25th quartile", "result": 94.5, "unit": "mg/dL"}, {"measurement": "Serum triglycerides, QR(25)", "setting": "[1]; 25th quartile", "result": 87.75, "unit": "mg/dL"}, {"measurement": "Serum cholesterol, QR(75)", "setting": "[1]; 75th quartile", "result": 113.75, "unit": "mg/dL"}, {"measurement": "Serum triglycerides, QR(75)", "setting": "[1]; 75th quartile", "result": 131.25, "unit": "mg/dL"}, {"measurement": "Serum cholesterol, Max", "setting": "[1]; group maximum", "result": 121, "unit": "mg/dL"}, {"measurement": "Serum triglycerides, Max", "setting": "[1]; group maximum", "result": 140, "unit": "mg/dL"}, {"measurement": "Serum cholesterol, Median", "setting": "[1]; group median", "result": 104, "unit": "mg/dL"}, {"measurement": "Serum triglycerides, median", "setting": "[1]; group median", "result": 113, "unit": "mg/dL"}, {"measurement": "Serum cholesterol, Min", "setting": "[1]; group minimum", "result": 85, "unit": "mg/dL"}, {"measurement": "Serum triglycerides, Min", "setting": "[1]; group minimum", "result": 68, "unit": "mg/dL"}, {"measurement": "SERUM CREATININE, Median", "setting": "Col4a3 KO mice", "result": 2.85, "unit": "µg/mL"}, {"measurement": "WEIGHT (g), Median", "setting": "Col4a3 KO mice", "result": 15.61, "unit": "g"}, {"measurement": "BUN, QR(25)", "setting": "[2]; 25th quartile", "result": 15, "unit": "mg/dL"}, {"measurement": "sCre, QR(25)", "setting": "[2]; 25th quartile", "result": 0.1025, "unit": "mg/dL"}, {"measurement": "BUN, QR(75)", "setting": "[2]; 75th quartile", "result": 17.75, "unit": "mg/dL"}, {"measurement": "sCre, QR(75)", "setting": "[2]; 75th quartile", "result": 0.12, "unit": "mg/dL"}, {"measurement": "BUN, Max", "setting": "[2]; group maximum", "result": 22, "unit": "mg/dL"}, {"measurement": "sCre, Max", "setting": "[2]; group maximum", "result": 0.14, "unit": "mg/dL"}, {"measurement": "BUN, Median", "setting": "[2]; group median", "result": 16, "unit": "mg/dL"}, {"measurement": "sCre, Median", "setting": "[2]; group median", "result": 0.115, "unit": "mg/dL"}, {"measurement": "BUN, Min", "setting": "[2]; group minimum", "result": 13, "unit": "mg/dL"}, {"measurement": "sCre, Min", "setting": "[2]; group minimum", "result": 0.09, "unit": "mg/dL"}]}
